# In PubChem BioAssay AID624417 (National Center for Advancing Translational Sciences (NCATS), 2012):
# Among all 410,000 compounds or so, about 6,400 (1.6%) were called active. This list was built around the results that the source calls inconclusive (neither active nor inactive); the mix of calls is not that of the screen. Calls come from the whole dose curve; as a rule, active = well fitted inhibition curve with a large enough effect; inconclusive = small, poorly fitted or top-dose-only effect; inactive = no such curve, though single readings can be large or run the other way. Potencies of inconclusive entries are left out as doubtful fits.
# Target: Glucagon-like peptide 1 receptor (Homo sapiens) (UniProt P43220)
# Experiment: qHTS of GLP-1 Receptor Inverse Agonists (Inhibition Mode); note: nearly all actives have a fitted effect of over 55% in size
# Settings: HEK293 GLP-1R CRE-luciferase, luminescence, 24 h, GLP-1R form is constitutively active; activity change, negative = inhibition: at 38.3 µM (top of the series) unless noted
# Method in brief: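 Using stably transfected HEK293 (constitutively active GLP-1R, cAMP-luciferase reporter), compounds were incubated 24 hr and luciferase measured by luminescence.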
# % is set by controls: 0 for no effect and ±100 for the full control effect; potency is the fitted concentration of half-maximal effect; tags give direction and shape of the fitted curve.
# Sequence of UniProt P43220 (P43220 whole entry, looked up): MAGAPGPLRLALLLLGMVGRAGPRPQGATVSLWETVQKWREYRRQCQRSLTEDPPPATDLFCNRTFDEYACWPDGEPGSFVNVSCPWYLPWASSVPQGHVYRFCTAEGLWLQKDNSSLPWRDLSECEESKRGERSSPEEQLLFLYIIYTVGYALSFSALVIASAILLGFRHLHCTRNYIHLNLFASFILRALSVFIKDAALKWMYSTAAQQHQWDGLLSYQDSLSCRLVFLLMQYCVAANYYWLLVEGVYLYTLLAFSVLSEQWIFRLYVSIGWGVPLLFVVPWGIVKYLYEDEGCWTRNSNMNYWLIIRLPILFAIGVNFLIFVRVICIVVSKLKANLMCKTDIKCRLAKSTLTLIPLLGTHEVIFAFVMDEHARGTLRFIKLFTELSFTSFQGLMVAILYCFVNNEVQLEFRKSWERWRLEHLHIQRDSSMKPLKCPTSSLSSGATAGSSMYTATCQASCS
Compound,Potency,"activity change, negative = inhibition"
O=C(CN1C(=O)CC(c2ccco2)Sc2ccccc21)Nc1ccc(Br)cc1 (stereo not drawn),"inconclusive [inhibitor, single point]",
c1csc(C(c2nnnn2C2CCCC2)N2CCCC3(CCCCC3)C2)c1 (stereo not drawn),"inconclusive [inhibitor, partial curve, poor fit]",
O=S(=O)(NCCCc1ccccc1)c1ccc(Br)cc1,"inconclusive [inhibitor, partial curve, poor fit]",
Cc1ccc(Cn2c(CCNc3nc(-c4ccc(Cl)c([N+](=O)[O-])c4)cs3)nc3cc(Cl)c(Cl)cc32)cc1,"inconclusive [inhibitor, single point]",
Cn1cc(C(=O)NCCc2ccccc2)c(=O)c2cc(S(=O)(=O)N3CCCCCC3)ccc21,,inactive: 7.8%
O=C(CN1C(=O)NC2(CCOc3ccccc32)C1=O)c1ccc(Cl)s1 (stereo not drawn),"inconclusive [inhibitor, partial curve, poor fit]",
C=CCNCCCCOc1cccc(Br)c1,"inconclusive [inhibitor, partial curve, poor fit]",
COc1ccc(-c2csc(NC(=O)CN3C(=O)C4CCCCC4C3=O)n2)c(OC)c1 (stereo not drawn),"inconclusive [inhibitor, single point]",
CCCNC(=O)C1CCN(Cc2cc3ccccc3n2Cc2ccccc2)CC1,"inconclusive [inhibitor, single point]",
CCC/C(O)=C1\C(=O)CC(c2ccccc2)CC1=NCCc1c(C)[nH]c2ccc(C)cc12 (stereo not drawn),"inconclusive [inhibitor, single point]",
COc1ccc(-c2nc3ccc(C)cn3c2CC(C)(C)C)cc1OC,"inconclusive [inhibitor, single point]",
CN(C)c1ccc(/C=C/c2cc[n+](C)cc2)cc1,"inconclusive [inhibitor, full curve]",
Cc1ccc(C)c(OCCCN2CCNCC2)c1,"inconclusive [inhibitor, partial curve, poor fit]",
CC1=C(C(=O)Nc2cccc(C(=O)NCc3ccc(F)cc3)c2)SCCO1,"inconclusive [inhibitor, partial curve, poor fit]",
NC(=O)N1CCN(CCCN2c3ccccc3Sc3cc(Cl)ccc32)CC1,"inconclusive [inhibitor, single point]",
Nc1nonc1C(=O)NCCNCc1c(OCc2ccccc2F)ccc2ccccc12,"inconclusive [inhibitor, single point]",
N=c1sccn1CC(=O)Nc1ccccc1Oc1ccccc1,"inconclusive [inhibitor, partial curve]",
COc1cc(C(=O)NC2CC(C)(C)CC(C)(C)C2)ccc1OC1CCN(C(C)=O)CC1,"inconclusive [inhibitor, partial curve, poor fit]",
C=CCn1c(COc2ccccc2)nc2ccccc21,"inconclusive [inhibitor, single point]",
O=C(COC(=O)c1ccccc1NS(=O)(=O)c1cccs1)NCC12CC3CC(CC(C3)C1)C2,"inconclusive [inhibitor, single point]",
N=c1sccn1CC(=O)NCCc1ccc(Cl)cc1Cl,"inconclusive [inhibitor, partial curve, poor fit]",

Compound,Potency,"activity change, negative = inhibition"
CN(C)S(=O)(=O)c1cccc(N=C2NN=C(c3ccccc3)CS2)c1,active: 11.2 µM,
C=CCn1c(COc2cccc3cccnc23)nnc1SCC(=O)O,,inactive: 5.31%
O=C(NN1CCOCC1)C12CC3CC(CC(C3)C1)C2,,inactive: 4.26%
C=C1CCC[C@]2(C)C[C@H]3OC(=O)C(CN4CCCCC4CO)[C@H]3CC12 (stereo partly drawn),,inactive: 63.2%
COc1ccc(OCCOC(=O)CNC(=O)c2ccc(F)cc2)cc1,,inactive: 17.7%
O=C(CN1CCN(c2ccc(F)cc2)CC1)Nc1cccc(C(F)(F)F)c1,"inconclusive [inhibitor, partial curve, poor fit]",
Cc1ccc(-c2nnc(Nc3ccc(OCC(N)=O)cc3)c3ccccc23)cc1S(=O)(=O)N(C)C,,inactive: 49.8%
CCC(=O)Nc1ccccc1C(=O)OCC(=O)c1ccc2ccccc2c1,,inactive: 0%
O=C(c1cc(COc2ccc(F)cc2Cl)on1)N1C[C@H]2CC[C@H]1C2,"inconclusive [inhibitor, partial curve, poor fit]",
COc1ccc(N(CC(=O)Nc2ccccc2F)S(=O)(=O)c2ccc(C)c([N+](=O)[O-])c2)cc1,"inconclusive [inhibitor, single point]",
CCOC(=O)C1=CCN(S(=O)(=O)c2ccccc2Cl)C1c1cccc(Cl)c1 (stereo not drawn),"inconclusive [inhibitor, single point]",
COC(=O)Cn1c(=O)c2c(nc(Br)n2Cc2ccccc2Cl)n(C)c1=O,"inconclusive [inhibitor, single point]",
CCn1c(C)c(C)c2cc(C(=O)NCc3ccc(OC)cc3OC)ccc21,,inactive: -9%
Cc1ccc(Cn2nc(-c3ccccc3)nc2-c2ccccc2)cc1,"inconclusive [inhibitor, single point]",
CCCCn1c(O)c(N=Nc2ccccn2)c2ccccc21,"inconclusive [inhibitor, single point]",
COc1ccccc1N(C)S(=O)(=O)c1ccc(Cl)c(C(=O)NCc2ccco2)c1,"inconclusive [inhibitor, partial curve, poor fit]",
COc1ccc(OCc2nc3c4c(ncn3n2)-c2ccccc2CC42CCCC2)cc1,"inconclusive [inhibitor, full curve, poor fit]",
COc1ccc(C)cc1NC(=O)c1cccc(-c2ccc(OC(C)=O)cc2)c1,"inconclusive [inhibitor, single point]",
CCN(CC)S(=O)(=O)c1ccc(NC(=O)c2c(C)oc3ncnc(N4CCOCC4)c23)cc1,,inactive: 5.83%
CCc1c(C)sc2c1CCN(C(=O)Nc1cc(Cl)c(OC)cc1OC)C2c1ccccc1 (stereo not drawn),,inactive: -64.9%
CCC(=O)N1CCc2cc(CNS(=O)(=O)c3ccc(NC(=O)CC(C)C)cc3)ccc21,"inconclusive [inhibitor, single point]",

Compound,Potency,"activity change, negative = inhibition"
C=CCNC(=O)/C(C#N)=C/c1c(N(Cc2ccccc2)Cc2ccccc2)nc2ccccn2c1=O,"inconclusive [inhibitor, partial curve, poor fit]",
COc1ccc(-c2csc(C(C)(O)c3cccc(F)c3)n2)cc1 (stereo not drawn),"inconclusive [inhibitor, single point]",
COc1ccc2c(c1)CC(C(=O)NCCCN1CCN(c3ccccc3F)CC1)CO2 (stereo not drawn),"inconclusive [inhibitor, partial curve]",
O=C(NCC(c1ccco1)N1CCc2ccccc2C1)c1ccc(F)cc1 (stereo not drawn),"inconclusive [inhibitor, single point]",
COc1ccc(NC2c3ncccc3C(=O)N2Cc2ccccc2)c(OC)c1 (stereo not drawn),,inactive: 0%
C=CCN1C(=O)/C(=C/c2ccc(OC(C)=O)c(OCC)c2[N+](=O)[O-])SC1=S,"inconclusive [inhibitor, full curve, poor fit]",
CCOc1ccc(NC(=O)c2c(NC(=O)c3ccccc3F)sc3c2CCC3)cc1,,inactive: -3.33%
O=C(NCc1ccccc1Cl)c1ccc(CS(=O)Cc2ccc(Cl)cc2)o1 (stereo not drawn),"inconclusive [inhibitor, partial curve, poor fit]",
CCOc1ccccc1NC(=O)c1c(NCc2cccs2)sc2c1CCCCC2,active: 12.6 µM,
O=C1CC(Sc2ccc(Cl)cc2)C(=O)N1c1ccc2c(c1)OCCO2 (stereo not drawn),"inconclusive [inhibitor, partial curve]",
COc1ccc(N2CC(C)Cn3c2nc2c3c(=O)n(Cc3ccc(C)cc3)c(=O)n2C)c(OC)c1 (stereo not drawn),"inconclusive [inhibitor, partial curve, poor fit]",
O=C(NCC1CCCO1)c1cc2c([nH]c3ccccc32)c(-c2cccc(Cl)c2)n1 (stereo not drawn),"inconclusive [inhibitor, partial curve, poor fit]",
S=C(NCCNC(=S)Nc1ccccc1Cl)Nc1ccccc1Cl,"inconclusive [inhibitor, partial curve]",
CCN(CC)C(=O)c1cccc(NC(=O)c2cc(C3CC3)nc3c2cnn3C(C)C)c1,"inconclusive [inhibitor, single point]",
Cc1nc(CS(=O)(=O)c2ccc(Cl)cc2)cc(Sc2ccc(Cl)cc2)n1,"inconclusive [inhibitor, partial curve, poor fit]",
CCCCNC(=O)COC(=O)c1c2c(nc3ccccc13)CCC2,"inconclusive [inhibitor, partial curve]",
COc1ccccc1NC(=O)CSc1nnc(Cc2cccn2C)n1CCc1ccccc1,"inconclusive [inhibitor, partial curve, poor fit]",
CN(C)S(=O)(=O)c1cccc(NC(=S)NC2CCCCC2)c1,active: 11.2 µM,
O=C1N(Cc2ccccc2)c2ccc(Br)cc2[C@]12C[C@H](O)CO2,,inactive: -11.8%
COc1ccc(CN2CCN(C(=O)CCC(=O)Nc3nnc(C(F)(F)F)s3)CC2)cc1F,"inconclusive [inhibitor, partial curve, poor fit]",
Cc1ccc(NC(=O)CN2CCCN(S(=O)(=O)c3ccc(Br)s3)CC2)cc1,"inconclusive [inhibitor, partial curve, poor fit]",
